{
  "source": "the supplement of paper PMC8728848",
  "binders": {"B1": {"name": "StcE (Escherichia coli), O82882.2 (protein)", "chain": "ADNNSAIYFNTSQPINDLQGSLAAEVKFAQSQILPAHPKEGDSQPHLTSLRKSLLLVRPVKADDKTPVQVEARDDNNKILGTLTLYPPSSLPDTIYHLDGVPEGGIDFTPHNGTKKIINTVAEVNKLSDASGSSIHSHLTNNALVEIHTANGRWVRDIYLPQGPDLEGKMVRFVSSAGYSSTVFYGDRKVTLSVGNTLLFKYVNGQWFRSGELENNRITYAQHIWSAELPAHWIVPGLNLVIKQGNLSGRLNDIKIGAPGELLLHTIDIGMLTTPRDRFDFAKDKEAHREYFQTIPVSRMIVNNYAPLHLKEVMLPTGELLTDMDPGNGGWHSGTMRQRIGKELVSHGIDNANYGLNSTAGLGENSHPYVVAQLAAHNSRGNYANGIQVHGGSGGGGIVTLDSTLGNEFSHEVGHNYGLGHYVDGFKGSVHRSAENNNSTWGWDGDKKRFIPNFYPSQTNEKSCLNNQCQEPFDGHKFGFDAMAGGSPFSAANRFTMYTPNSSAIIQRFFENKAVFDSRSSTGFSKWNADTQEMEPYEHTIDRAEQITASVNELSESKMAELMAEYAVVKVHMWNGNWTRNIYIPTASADNRGSILTINHEAGYNSYLFINGDEKVVSQGYKKSFVSDGQFWKERDVVDTREARKPEQFGVPVTTLVGYYDPEGTLSSYIYPAMYGAYGFTYSDDSQNLSDNDCQLQVDTKEGQLRFRLANHRANNTVMNKFHINVPTESQPTQATLVCNNKILDTKSLTPAPEGLTYTVNGQALPAKENEGCIVSVNSGKRYCLPVGQRSGYSLPDWIVGQEVYVDSGAKAKVLLSDWDNLSYNRIGEFVGNVNPADMKKVKAWNGQYLDFSKPRSMRVVYK"}},
  "test_in_all_cases": "glycan array binding signal (z-score within array); higher = stronger binding",
  "conditions_in_all_cases": "glycan notation: IUPAC condensed, linker removed",
  "key": {"[1]": {"biological_target": "Fuc(a1-2)[Gal(a1-3)]Gal(b1-4)GlcNAc(b1-6)GalNAc", "method_in_brief": "(§1)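 The Consortium for Functional Glycomics database supplied 3228 glycan arrays, of which those lacking an available protein sequence were dropped. The binding signal, a within-array Z-score, was averaged across arrays of the same protein sequence and across linkers. Negative scores can be read as non-binding.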"}, "[2]": {"biological_target": "Fuc(a1-2)[Gal(a1-3)]Gal(b1-4)[Fuc(a1-3)]Glc", "method_in_brief": "as §1"}, "[3]": {"biological_target": "Fuc(a1-2)[Gal(a1-3)]Gal(b1-4)[Fuc(a1-3)]GlcNAc", "method_in_brief": "as §1"}, "[4]": {"biological_target": "Fuc(a1-2)[Gal(a1-3)]Gal(b1-4)[Fuc(a1-3)]GlcNAc(b1-3)GalNAc", "method_in_brief": "as §1"}, "[5]": {"biological_target": "Fuc(a1-2)[Gal(a1-4)]Gal(b1-4)GlcNAc", "method_in_brief": "as §1"}, "[6]": {"biological_target": "Fuc(a1-2)[GalNAc(a1-3)]Gal", "method_in_brief": "as §1"}, "[7]": {"biological_target": "Fuc(a1-2)[GalNAc(a1-3)]Gal(b1-3)GalNAc(a1-3)[Fuc(a1-2)]Gal(b1-4)GlcNAc", "method_in_brief": "as §1"}, "[8]": {"biological_target": "Fuc(a1-2)[GalNAc(a1-3)]Gal(b1-3)GlcNAc", "method_in_brief": "as §1"}, "[9]": {"biological_target": "Fuc(a1-2)[GalNAc(a1-3)]Gal(b1-3)GlcNAc(b1-2)Man(a1-3)[Fuc(a1-2)[GalNAc(a1-3)]Gal(b1-3)GlcNAc(b1-2)Man(a1-6)]Man(b1-4)GlcNAc(b1-4)GlcNAc", "method_in_brief": "as §1"}, "[10]": {"biological_target": "Fuc(a1-2)[GalNAc(a1-3)]Gal(b1-3)GlcNAc(b1-2)Man(a1-3)[Fuc(a1-2)[GalNAc(a1-3)]Gal(b1-3)GlcNAc(b1-2)Man(a1-6)]Man(b1-4)GlcNAc(b1-4)[Fuc(a1-6)]GlcNAc", "method_in_brief": "as §1"}, "[11]": {"biological_target": "Fuc(a1-2)[GalNAc(a1-3)]Gal(b1-3)GlcNAc(b1-3)GalNAc", "method_in_brief": "as §1"}, "[12]": {"biological_target": "Fuc(a1-2)[GalNAc(a1-3)]Gal(b1-3)GlcNAc(b1-6)GalNAc", "method_in_brief": "as §1"}, "[13]": {"biological_target": "Fuc(a1-2)[GalNAc(a1-3)]Gal(b1-4)Glc", "method_in_brief": "as §1"}, "[14]": {"biological_target": "Fuc(a1-2)[GalNAc(a1-3)]Gal(b1-4)GlcNAc", "method_in_brief": "as §1"}, "[15]": {"biological_target": "Fuc(a1-2)[GalNAc(a1-3)]Gal(b1-4)GlcNAc(b1-2)Man(a1-3)[Fuc(a1-2)[GalNAc(a1-3)]Gal(b1-4)GlcNAc(b1-2)Man(a1-6)]Man(b1-4)GlcNAc(b1-4)GlcNAc", "method_in_brief": "as §1"}, "[16]": {"biological_target": "Fuc(a1-2)[GalNAc(a1-3)]Gal(b1-4)GlcNAc(b1-2)Man(a1-3)[Fuc(a1-2)[GalNAc(a1-3)]Gal(b1-4)GlcNAc(b1-2)Man(a1-6)]Man(b1-4)GlcNAc(b1-4)[Fuc(a1-6)]GlcNAc", "method_in_brief": "as §1"}, "[17]": {"biological_target": "Fuc(a1-2)[GalNAc(a1-3)]Gal(b1-4)GlcNAc(b1-3)Gal(b1-4)GlcNAc", "method_in_brief": "as §1"}, "[18]": {"biological_target": "Fuc(a1-2)[GalNAc(a1-3)]Gal(b1-4)GlcNAc(b1-3)Gal(b1-4)GlcNAc(b1-3)Gal(b1-4)GlcNAc", "method_in_brief": "as §1"}, "[19]": {"biological_target": "Fuc(a1-2)[GalNAc(a1-3)]Gal(b1-4)GlcNAc(b1-3)GalNAc", "method_in_brief": "as §1"}, "[20]": {"biological_target": "Fuc(a1-2)[GalNAc(a1-3)]Gal(b1-4)[Fuc(a1-3)]GlcNAc", "method_in_brief": "as §1"}, "[21]": {"biological_target": "Fuc(a1-2)[GalNAc(a1-3)]Gal(b1-4)[Fuc(a1-3)]GlcNAc(b1-3)GalNAc", "method_in_brief": "as §1"}, "[22]": {"biological_target": "Fuc(a1-2)[GalNAc(a1-4)]Gal(b1-4)GlcNAc", "method_in_brief": "as §1"}, "[23]": {"biological_target": "Fuc(a1-2)[GalNAc(b1-3)]Gal", "method_in_brief": "as §1"}, "Fuc(a1-3)GlcNAc": {"biological_target": "Fuc(a1-3)GlcNAc", "method_in_brief": "as §1"}, "[24]": {"biological_target": "Fuc(a1-3)[Gal(b1-4)]Glc6S", "method_in_brief": "as §1"}, "[25]": {"biological_target": "Fuc(a1-3)[Gal(b1-4)]GlcNAc", "method_in_brief": "as §1"}, "[26]": {"biological_target": "Fuc(a1-3)[Gal(b1-4)]GlcNAc(b1-2)Man", "method_in_brief": "as §1"}, "[27]": {"biological_target": "Fuc(a1-3)[Gal(b1-4)]GlcNAc(b1-2)Man(a1-3)[Fuc(a1-3)[Gal(b1-4)]GlcNAc(b1-2)Man(a1-6)]Man(b1-4)GlcNAc(b1-4)GlcNAc", "method_in_brief": "as §1"}, "[28]": {"biological_target": "Fuc(a1-3)[Gal(b1-4)]GlcNAc(b1-2)Man(a1-3)[Fuc(a1-3)[Gal(b1-4)]GlcNAc(b1-2)Man(a1-6)]Man(b1-4)GlcNAc(b1-4)[Fuc(a1-6)]GlcNAc", "method_in_brief": "as §1"}, "[29]": {"biological_target": "Fuc(a1-3)[Gal(b1-4)]GlcNAc(b1-3)Gal(b1-3)[Fuc(a1-4)]GlcNAc", "method_in_brief": "as §1"}},
  "note": "Some of the results follow.",
  "data": [
    {"binder": "B1", "values": [
      {"measurement": "glycan array binding signal (z-score)", "setting": "[1]", "value": -0.052},
      {"measurement": "glycan array binding signal (z-score)", "setting": "[2]", "value": -0.158},
      {"measurement": "glycan array binding signal (z-score)", "setting": "[3]", "value": -0.14},
      {"measurement": "glycan array binding signal (z-score)", "setting": "[4]", "value": -0.14},
      {"measurement": "glycan array binding signal (z-score)", "setting": "[5]", "value": -0.178},
      {"measurement": "glycan array binding signal (z-score)", "setting": "[6]", "value": -0.251},
      {"measurement": "glycan array binding signal (z-score)", "setting": "[7]", "value": -0.079},
      {"measurement": "glycan array binding signal (z-score)", "setting": "[8]", "value": -0.164},
      {"measurement": "glycan array binding signal (z-score)", "setting": "[9]", "value": -0.132},
      {"measurement": "glycan array binding signal (z-score)", "setting": "[10]", "value": 0.015},
      {"measurement": "glycan array binding signal (z-score)", "setting": "[11]", "value": -0.096},
      {"measurement": "glycan array binding signal (z-score)", "setting": "[12]", "value": 0.26},
      {"measurement": "glycan array binding signal (z-score)", "setting": "[13]", "value": -0.141},
      {"measurement": "glycan array binding signal (z-score)", "setting": "[14]", "value": -0.038},
      {"measurement": "glycan array binding signal (z-score)", "setting": "[15]", "value": -0.15},
      {"measurement": "glycan array binding signal (z-score)", "setting": "[16]", "value": -0.164},
      {"measurement": "glycan array binding signal (z-score)", "setting": "[17]", "value": -0.145},
      {"measurement": "glycan array binding signal (z-score)", "setting": "[18]", "value": -0.164},
      {"measurement": "glycan array binding signal (z-score)", "setting": "[19]", "value": -0.15},
      {"measurement": "glycan array binding signal (z-score)", "setting": "[20]", "value": -0.181},
      {"measurement": "glycan array binding signal (z-score)", "setting": "[21]", "value": -0.009},
      {"measurement": "glycan array binding signal (z-score)", "setting": "[22]", "value": -0.156},
      {"measurement": "glycan array binding signal (z-score)", "setting": "[23]", "value": -0.207},
      {"measurement": "glycan array binding signal (z-score)", "setting": "Fuc(a1-3)GlcNAc", "value": -0.372},
      {"measurement": "glycan array binding signal (z-score)", "setting": "[24]", "value": -0.147},
      {"measurement": "glycan array binding signal (z-score)", "setting": "[25]", "value": -0.454},
      {"measurement": "glycan array binding signal (z-score)", "setting": "[26]", "value": -0.148},
      {"measurement": "glycan array binding signal (z-score)", "setting": "[27]", "value": -0.16},
      {"measurement": "glycan array binding signal (z-score)", "setting": "[28]", "value": -0.117},
      {"measurement": "glycan array binding signal (z-score)", "setting": "[29]", "value": -0.162}
    ]}
  ]
}
